# Source: the supplement of paper PMC4604168 (melanoma cell lines)
# Some of the results follow. Repeats are few or missing, and single values can be far off.
# Key:
# Test in all cases: cell count relative to DMSO control; melanoma cells; higher = more viable cells
# Conditions in all cases: library dose: standard library concentration; 72 h
# G361 = test system: G361
# IPC-298 = test system: IPC-298
# IST-MEL1 = test system: IST-MEL1
# LB2518-MEL = test system: LB2518-MEL
# LOXIMVI = test system: LOXIMVI
# MEL-HO = test system: MEL-HO
# MZ2-MEL = test system: MZ2-MEL
# MeWo = test system: MeWo
# RPMI7951 = test system: RPMI7951
# RVH-421 = test system: RVH-421
# SkMel28 = test system: SkMel28
# SkMel2 = test system: SkMel2
# SkMel30 = test system: SkMel30
# SkMel5 = test system: SkMel5
# UACC257 = test system: UACC257
# UACC62 = test system: UACC62
# WM115 = test system: WM115
# WM1716 = test system: WM1716
# WM3526 = test system: WM3526
# WM1745 = test system: WM1745
# 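Note: cells treated in 1,536-well plates, then fixed and DAPI-stained, with nuclei counted from automated high-throughput microscope images.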
Structure (SMILES),cell count (G361),cell count (IPC-298),cell count (IST-MEL1),cell count (LB2518-MEL),cell count (LOXIMVI),cell count (MEL-HO),cell count (MZ2-MEL),cell count (MeWo),cell count (RPMI7951),cell count (RVH-421),cell count (SkMel28),cell count (SkMel2),cell count (SkMel30),cell count (SkMel5),cell count (UACC257),cell count (UACC62),cell count (WM115),cell count (WM1716),cell count (WM3526),cell count (WM1745)
"O=c1[nH]nc(Sc2ncc([N+](=O)[O-])s2)n1-c1ccc2c(c1)OCCO2 + Cc1cc(SCc2sc(-c3ccc(C(F)(F)F)c(F)c3)nc2C)ccc1OCC(=O)O [GW0742] (first compound 1 µM, partner dose 10 µM)",110%,133%,121%,123%,107%,115%,139%,103%,132%,149%,103%,117%,116%,128%,103%,104%,79.9%,132%,130%,
"Cc1ccc(Nc2nccc(N(C)c3ccc4c(C)n(C)nc4c3)n2)cc1S(N)(=O)=O [Pazopanib] + Cc1cc(SCc2sc(-c3ccc(C(F)(F)F)c(F)c3)nc2C)ccc1OCC(=O)O [GW0742] (first compound 2 µM, partner dose 10 µM)",83.5%,64.1%,92.3%,84%,98.6%,80.9%,61.2%,96.5%,91.6%,97.3%,73.4%,99.2%,83.5%,87.4%,78.2%,86.8%,74.6%,81%,83.8%,
"Cn1sc(=O)n(Cc2ccccc2)c1=O + Cc1cc(SCc2sc(-c3ccc(C(F)(F)F)c(F)c3)nc2C)ccc1OCC(=O)O [GW0742] (first compound 2 µM, partner dose 10 µM)",87.6%,99.8%,90.9%,90.7%,80.3%,97.2%,83.1%,89.1%,85.4%,85.5%,81.7%,91.3%,111%,106%,93.2%,87.3%,98.8%,101%,94.8%,
"CN(c1ncccc1CNc1nc(Nc2ccc3c(c2)CC(=O)N3)ncc1C(F)(F)F)S(C)(=O)=O + O=C(Oc1ccc([N+](=O)[O-])cc1)N1CCC(C(O)(c2ccc3c(c2)OCO3)c2ccc3c(c2)OCO3)CC1 [JZL184] (first compound 0.4 µM, partner dose 5 µM)",102%,102%,97.8%,94%,241%,114%,117%,112%,70.6%,83.1%,86.8%,94.3%,96.5%,74.5%,73.3%,55.3%,88.1%,77.5%,95.5%,
"CN(c1ncccc1CNc1nc(Nc2ccc3c(c2)CC(=O)N3)ncc1C(F)(F)F)S(C)(=O)=O + Cc1cc(SCc2sc(-c3ccc(C(F)(F)F)c(F)c3)nc2C)ccc1OCC(=O)O [GW0742] (first compound 0.4 µM, partner dose 10 µM)",87.8%,89.3%,92.2%,86.2%,85%,96.5%,82%,86.2%,64.9%,77.8%,54.2%,77.3%,87.2%,74.3%,71.3%,84.8%,82.1%,85%,93.5%,
"CS(=O)(=O)c1ccc(C(=O)Nc2ccc(Cl)c(-c3ccccn3)c2)c(Cl)c1 [vismodegib] + Cc1cc(SCc2sc(-c3ccc(C(F)(F)F)c(F)c3)nc2C)ccc1OCC(=O)O [GW0742] (first compound 5 µM, partner dose 10 µM)",93.8%,108%,92.6%,88%,103%,94.5%,109%,105%,126%,109%,75.5%,99.6%,104%,90.8%,109%,86.8%,100%,101%,136%,
"O=C(Nc1cc(C(F)(F)F)cc(C(F)(F)F)c1)c1cc(Cl)ccc1O + C/C(O)=C(\C#N)C(=O)Nc1cc(Br)ccc1Br [LFM-A13] (first compound 0.08 µM, partner dose 10 µM)",97.3%,105%,84.6%,112%,93.6%,88.1%,100%,69.6%,68%,78.1%,103%,89.5%,102%,82.6%,85.6%,110%,92%,96.1%,99.7%,
"CC[C@]1(O)C[C@H]2CN(CCc3c([nH]c4ccccc34)[C@@](C(=O)OC)(c3cc4c(cc3OC)N(C=O)[C@H]3[C@@](O)(C(=O)OC)[C@H](OC(C)=O)[C@]5(CC)C=CCN6CC[C@]43[C@@H]65)C2)C1 [vincristine] + Cc1cc(SCc2sc(-c3ccc(C(F)(F)F)c(F)c3)nc2C)ccc1OCC(=O)O [GW0742] (first compound 0.0005 µM, partner dose 10 µM)",78.3%,88%,86%,75.6%,61.2%,88.9%,89%,39.2%,40%,85.5%,63.3%,84.8%,60.5%,33.9%,71.3%,68.8%,28%,45.9%,57.7%,
"Cn1c(=O)n(-c2ccc(C(C)(C)C#N)cc2)c2c3cc(-c4cnc5ccccc5c4)ccc3ncc21 + N.N.[Cl][Pt][Cl] [cisplatin] (first compound 0.02 µM, partner dose 8 µM)",57.1%,88%,75.1%,,40.6%,59.1%,,61.4%,71.7%,59.5%,58.5%,69.8%,67.4%,67.6%,81.5%,60.7%,62.2%,77.8%,71.4%,96.9%
"C=C(c1ccc(C(=O)O)cc1)c1cc2c(cc1C)C(C)(C)CCC2(C)C [Bexarotene] + C/C(O)=C(\C#N)C(=O)Nc1cc(Br)ccc1Br [LFM-A13] (first compound 10 µM, partner dose 10 µM)",96.9%,90.5%,84.8%,107%,108%,77.8%,93.2%,97.7%,57.4%,86.9%,76.2%,106%,101%,101%,85.5%,69.4%,115%,84.8%,83.9%,
"CC1(C)CCC(c2ccc(Cl)cc2)=C(CN2CCN(c3ccc(C(=O)NS(=O)(=O)c4ccc(N[C@H](CCN5CCOCC5)CSc5ccccc5)c(S(=O)(=O)C(F)(F)F)c4)cc3)CC2)C1 + Cc1cc(SCc2sc(-c3ccc(C(F)(F)F)c(F)c3)nc2C)ccc1OCC(=O)O [GW0742] (first compound 2 µM, partner dose 10 µM)",72.1%,85.7%,74.3%,74.8%,39.8%,57.9%,88.1%,75.2%,43.9%,61.5%,79.3%,70.1%,76.6%,63.5%,34%,78.5%,80.7%,62.4%,78%,
"Cn1c(=O)n(-c2ccc(C(C)(C)C#N)cc2)c2c3cc(-c4cnc5ccccc5c4)ccc3ncc21 + O=C(Oc1ccc([N+](=O)[O-])cc1)N1CCC(C(O)(c2ccc3c(c2)OCO3)c2ccc3c(c2)OCO3)CC1 [JZL184] (first compound 0.02 µM, partner dose 5 µM)",61.3%,78.7%,98.9%,90.7%,105%,84.8%,76.2%,58.7%,68.7%,86.9%,37.5%,60.6%,55.5%,67.2%,88.7%,55.6%,78.4%,60.3%,75.5%,
"COc1cc([C@@H]2c3cc4c(cc3[C@@H](O[C@@H]3O[C@@H]5CO[C@@H](C)O[C@H]5[C@H](O)[C@H]3O)[C@H]3COC(=O)[C@H]23)OCO4)cc(OC)c1O [etoposide] + C/C(O)=C(\C#N)C(=O)Nc1cc(Br)ccc1Br [LFM-A13] (first compound 0.1 µM, partner dose 10 µM)",94.6%,81.1%,97.9%,95.2%,123%,83.1%,75.5%,74%,79.1%,121%,81.2%,72.8%,86.8%,88.2%,88.1%,68.7%,91.3%,69.1%,84.1%,
"Cc1cc(SCc2sc(-c3ccc(C(F)(F)F)c(F)c3)nc2C)ccc1OCC(=O)O + COc1cc2ncnc(Nc3ccc(Oc4ccccc4)cc3)c2cc1OC [SrcI1] (first compound 10 µM, partner dose 10 µM)",69.2%,72.8%,85.6%,,77.5%,76.4%,,81.4%,71.6%,112%,92.2%,108%,88.8%,66.4%,82.2%,87.4%,88.3%,93.6%,58%,70.2%
"Cc1cn(-c2cc(NC(=O)c3ccc(C)c(Nc4nccc(-c5cccnc5)n4)c3)cc(C(F)(F)F)c2)cn1 [nilotinib] + C/C(O)=C(\C#N)C(=O)Nc1cc(Br)ccc1Br [LFM-A13] (first compound 1 µM, partner dose 10 µM)",81.5%,93.8%,87%,99.8%,98.2%,81.6%,84.2%,88.1%,84.5%,102%,60.5%,91.2%,111%,126%,106%,69.4%,105%,98.4%,76%,
"O=c1[nH]nc(Sc2ncc([N+](=O)[O-])s2)n1-c1ccc2c(c1)OCCO2 + C[C@]12O[C@H](C[C@]1(O)CO)n1c3ccccc3c3c4c(c5c6ccccc6n2c5c31)CNC4=O [Lestaurtinib] (first compound 1 µM, partner dose 0.02 µM)",94.9%,83.2%,113%,,96.4%,82.7%,,79.8%,134%,96.3%,49.9%,107%,72.1%,57.4%,102%,79.1%,69%,101%,66.3%,102%
